Assay results: the supplement of paper PMC10338343
± gives the standard deviation. This is a selection; strong and weak results do not stand in their true shares.

system: MIWI (PIWIL1) piRISC loaded with L1MC piRNA (30 nt); assay: pre-steady-state target cleavage rate (min^-1); MIWI and MILI are mouse PIWI proteins and EfPiwi is from a freshwater sponge; tags in brackets are library labels; higher = faster piRNA-guided slicing of the target; details: guide: L1MC piRNA 5'p-UAACUAAAUACUAUGCAAGCUGUAGGUCCU; auxiliary factor: 500 nM mouse GTSF1
Summary of the method: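 The method was Cleave-'n-Seq, in which uncleaved targets from a transcribed, DNA-blocked target RNA library were sequenced after exposure to active affinity-purified piRISC carrying one synthetic guide, with or without GTSF1 partner protein. Reactions contained 0.1 nM library, 1 nM piRISC and, where present, 500 nM GTSF1 in HEPES–potassium acetate buffer at 33 °C for 0–8 or 0–960 min. Reads were normalised to depth and to weakly complementary targets, three trials were pooled, and k3 was capped at 0.0001 min^-1. The pre-steady-state cleavage rate came from a burst-and-steady-state fit.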

| Sequence | pre-steady-state target cleavage rate |
| --- | --- |
| UCCUGCUACAGCUACGAUAGUAUUUAGUUA | 0.143 ± 0.023 |
| UCCUGGUACAGCUUGCAUAGUUUUUUCAAA | 0.0267 ± 0.014 |
| UCCACCUACAGGAAGCAUAGUAUUUAGAAA | 0.15 ± 0.029 |
| UCCUCCUACAGCUUCGUUAGUAUUUAGAAA | 0.00561 ± 0.0041 |
| AGGACCUACAGCUUGCAUAGUAAAUUCAAA | 0.338 ± 0.08 |
| UCGACCUACAGCUUGCAUAGAAUUUUCAAA | 0.369 ± 0.059 |
| UCCUGGAUGUCGUUGCAUAGUAUUUGGUUA | 0.0113 ± 0.0039 |
| UCCUGGAUGUCCUAGCAUUGUAUUUAGUUA | 0.00474 ± 0.0045 |
| UCCUGGAUGUGCUUCCAUAGUAUUUAGUUA | 0.0109 ± 0.004 |
| UCCUGGAUCAGCUUGCUAUAGUAUUUAGUUA | 0.00584 ± 0.0043 |
| UCCUGGUACAGCUUGCAAAGUAUUUUCAAA | 0.117 ± 0.03 |
| UCCUGCUACAGCUUGGUUAGUAUUUACAAA | 0.0104 ± 0.0047 |
| UCCACCUACAGCAAGCAUAGUAUUUUCAAA | 0.196 ± 0.038 |
| UCCUGGAUGAGCAUGCAUAGUAUUUACAAA | 0.0519 ± 0.018 |
| AGGACCUACAGCUUCCAUAGAAUUUAGUUA | 0.0697 ± 0.022 |
| UCCUGGAACAGCUUGGUUAGUAUUUACAAA | 0.0339 ± 0.014 |
| UCGACCUACACGUUGCAUAGUAUUUACAAA | 0.256 ± 0.027 |

| Sequence | pre-steady-state target cleavage rate |
| --- | --- |
| UCCUGGAUGUCCUUGCAUAGUAUAAUGUUA | 0.0139 ± 0.0063 |
| UGGACCUACACGAUGCAUAGUAUUUAGAAA | 0.122 ± 0.016 |
| UCCUGCUACAGCUUCCAUAGUAUUUAGAAA | 0.0178 ± 0.0084 |
| AGGACCUACAGCUUGCAUAGAUAUUAGAAA | 0.158 ± 0.057 |
| AGGACCUACAGCUUGCACUAGUAUUUAGUUA | 0.254 ± 0.088 |
| UCCUGGAACACCUUCCAUAGUAUUUAGUUA | 0.00593 ± 0.0046 |
| UGGACCUACAGCUUCCAUAGUAUUUAGAAA | 0.00611 ± 0.0034 |
| UCCUGCUACAGCUAGCAUAGUAUUUAGAAA | 0.328 ± 0.054 |
| UCCACCUACUCCUUGCAUAGUAUUUUCAAA | 0.143 ± 0.021 |
| UCCACCUACACGUUGCAUAGUAUUUUCAAA | 0.22 ± 0.036 |
| UCGACCUACAGCUUGCAUAGUAUAUUCAAA | 0.466 ± 0.065 |
| UCCUGGAUGUCGAACGUAUGUAUAUAGUUA | < 0.0001 |
| UCCUGGAUGUCCUUGGAUAGUAUUUUGUUA | 0.0668 ± 0.017 |
| UCCUGGAUGUGCUUGCAUAGUAUUUUCUAA | 0.00784 ± 0.0038 |
| UCCUGGUACAGCUUGCAAUGUAUUUAGAAA | 0.0194 ± 0.0063 |
| UCCUCCUACAGCUUGGUAAGUAUUUAGUUA | 0.0733 ± 0.013 |

same assay, conditions: guide: L1MC piRNA 5'p-UAACUAAAUACUAUGCAAGCUGUAGGUCCU; auxiliary factor: none (no GTSF1)

| Sequence | pre-steady-state target cleavage rate |
| --- | --- |
| AGGUCCUUCAGCUUGCAUAGUAUUUAGUUA | 0.0947 ± 0.018 |
| UCCUGGAUGUCGAACGCUAGUAUUUAGUUA | < 0.0001 |
| UGGACCUACAGCUUGCAUGGUAUUUAGUUA | 0.0478 ± 0.01 |
| UCCUGGAUGUCGAACCAUAGUAUUUACAUA | < 0.0001 |
| UCGACCUACAGCUCGCAUAGUAUUUAGUUA | 0.0682 ± 0.013 |
| UCCUGGAUGUCGAACGUAAGUAAUUAGUAA | < 0.0001 |
| UCCUGGAUGUCGAACGAUAGUAAUUAGAUA | < 0.0001 |
